Values of other authors, collected in publication PMC4976356, “Structural insight into β-Clamp and its interaction with DNA Ligase in Helicobacter pylori” (Scientific Reports, 2016).

Tested on: Ecβ-clamp

In the case of MutL: MutL, binds to β-clamp in E. coli, the “interaction with E. coli β-clamp (in words)” value is given as “will also bind to β-clamp in E. coli”.
